Measurements: article PMC6602471
This is one part of the list. At the low end of the ranking the order means little.

Biological target: T1, ETS1 (UniProt P14921)
T1 sequence: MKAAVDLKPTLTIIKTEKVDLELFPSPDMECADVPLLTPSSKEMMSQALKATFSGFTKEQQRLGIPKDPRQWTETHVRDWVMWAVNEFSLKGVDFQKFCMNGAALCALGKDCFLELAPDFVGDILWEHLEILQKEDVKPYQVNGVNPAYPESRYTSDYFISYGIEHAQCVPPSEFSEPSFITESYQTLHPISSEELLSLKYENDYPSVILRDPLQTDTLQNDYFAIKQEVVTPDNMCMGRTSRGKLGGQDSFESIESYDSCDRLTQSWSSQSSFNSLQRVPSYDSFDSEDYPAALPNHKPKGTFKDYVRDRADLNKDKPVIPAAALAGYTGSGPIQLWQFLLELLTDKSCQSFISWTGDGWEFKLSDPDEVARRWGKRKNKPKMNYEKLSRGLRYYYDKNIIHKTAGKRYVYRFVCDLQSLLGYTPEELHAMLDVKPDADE
Test: custom PBM
Settings: custom protein-binding microarray; buffer, salt, pH and temperature not stated; high values mean tight binding; double strand, one strand shown

Sequence	binding signal (log fluorescence intensity)
GCGTATAGGATCCCATCCAACACACGTGTTAAAATGGTCTTGATTCGCTTGACGCTGCTG	8.01
CTGGGACTTGACCCAACTCTGCCACGTGGGTCATTTGTCTTGATTCGCTTGACGCTGCTG	8.21
CACAATTTTTACAGTAATGTAGCACCCGTAACTCCTGTCTTGATTCGCTTGACGCTGCTG	8.29
GTGTATAGGATCCCATCCAACACACTTGTTAAAATGGTCTTGATTCGCTTGACGCTGCTG	8.08
TACTGACTTATATATGCGAATGCACATGAATCGACCGTCTTGATTCGCTTGACGCTGCTG	8.34
TAATGACTTATATATGCGAATGCACATGAATAGACCGTCTTGATTCGCTTGACGCTGCTG	8.29
GTGGGACTTGACCCAACTCTGCCACGTGGGTCGTTTGTCTTGATTCGCTTGACGCTGCTG	8.38
TACTGACTTAAATATGCGAATGCACATGAATAGACCGTCTTGATTCGCTTGACGCTGCTG	8.34
GCTGCTGCGGTGCATACCCCACCGGATGTGACCACGGTCTTGATTCGCTTGACGCTGCTG	10.2
CACAATTTTTACTGTAATGTAGCACGCGTAACTCCTGTCTTGATTCGCTTGACGCTGCTG	8.34
GTGTATAGGATCCCATCCAACACACGTCTTAAAATGGTCTTGATTCGCTTGACGCTGCTG	8.3
GTGTATAGGATTCCATCCAACACACGTGTTAAAATGGTCTTGATTCGCTTGACGCTGCTG	8.03
CAGCATAGGACTTCTTCCCTGGAGCAATTGATAACCGTCTTGATTCGCTTGACGCTGCTG	8.18
CTGGGACTTGACCCAACTCTGCCACTTGGGTCGTTTGTCTTGATTCGCTTGACGCTGCTG	8.2
TACTGACTTATATATGCGAATGCACATGAAGAGACCGTCTTGATTCGCTTGACGCTGCTG	8.12
GGAAAAAGCCCCAGGGTAACACCGGAAGTGGGCTTAGTCTTGATTCGCTTGACGCTGCTG	12.1
GATTAATTTTTGCCCTTATTCGCACGTGCCATAACAGTCTTGATTCGCTTGACGCTGCTG	8.16
TGTCGGGTAAGGGAATGTAGCTCACGTGAATGAAAAGTCTTGATTCGCTTGACGCTGCTG	8.16
TCCGGCTACCAGCCCCACCCACTTCAGGCCTTGTAGGTCTTGATTCGCTTGACGCTGCTG	8.28
CAGCATCGGACTTCTTCCCTGAAGCAATTGATAACCGTCTTGATTCGCTTGACGCTGCTG	8.4
CACAATTTTTACAGTAACGTAGCACGCGTAACTCCTGTCTTGATTCGCTTGACGCTGCTG	8.28
GATTAATTTCTCCCCTTATTCGCACGTGCCATAACAGTCTTGATTCGCTTGACGCTGCTG	8.18
GTGTATAGGATCGCATCCAACACACGTGTTAAAATGGTCTTGATTCGCTTGACGCTGCTG	8.4
TACTGACTTACATATGCGAATGCACATGAATAGACCGTCTTGATTCGCTTGACGCTGCTG	8.22
GTGTATAGGATCCCATCCAACACACGTGATAAAATGGTCTTGATTCGCTTGACGCTGCTG	8.19
GGAAAAAGGCCCAGGGTAACATCGGAAGTGGGCTTAGTCTTGATTCGCTTGACGCTGCTG	8.54

Sequence	binding signal (log fluorescence intensity)
GTGTATTGGATCCCATCCAACACACGTGTTAAAATGGTCTTGATTCGCTTGACGCTGCTG	8.08
CTGGGACTTGACCCAACTCTGCGACGTGGGTCGTTTGTCTTGATTCGCTTGACGCTGCTG	8.16
TAACGGGAAGACGGTTGTGGTAGTTCCGGGTATTAAGTCTTGATTCGCTTGACGCTGCTG	8.88
GGAAAGAGGCCCAGGGTAACACCGGAAGTGGGCTTAGTCTTGATTCGCTTGACGCTGCTG	11.9
CACAATTCTTACAGTAATGTAGCACGCGTAACTCCTGTCTTGATTCGCTTGACGCTGCTG	8.04
CTGGGACTTGACCCAACGCTGCCACGTGGGTCGTTTGTCTTGATTCGCTTGACGCTGCTG	8.22
GTGTATAGGATCCCATCCAACACAAGTGTTAAAATGGTCTTGATTCGCTTGACGCTGCTG	8.17
CTGGGACTTGACCCAACTCTGCCACGTGGGTCTTTTGTCTTGATTCGCTTGACGCTGCTG	8.08
TCCGGCTACCAGCTCCACCCAGTTCAGGCCTTGTAGGTCTTGATTCGCTTGACGCTGCTG	8.27
GTGTATAGGATCCCATCCAACACACGTGTTAGAATGGTCTTGATTCGCTTGACGCTGCTG	8.26
CTGGGACTTGACCCAACTCTGCTACGTGGGTCGTTTGTCTTGATTCGCTTGACGCTGCTG	8.29
GTGTATAGGATCCCATCCAACACTCGTGTTAAAATGGTCTTGATTCGCTTGACGCTGCTG	8.3
GATTAATTTCTGCCCTTATTCGCACGTGCCATATCAGTCTTGATTCGCTTGACGCTGCTG	8.26
TAAAGGGAAGACGGTTGTGGTAATTCCGGGTATTAAGTCTTGATTCGCTTGACGCTGCTG	8.25
GCTGCTGCGGTGCGTACCCCACCGGATGTGACCCCGGTCTTGATTCGCTTGACGCTGCTG	9.93
TACTGACTTATATATACGAATGCACATGAATAGACCGTCTTGATTCGCTTGACGCTGCTG	8.16
CTGGGACTTGACCCAACTCTGCCAGGTGGGTCGTTTGTCTTGATTCGCTTGACGCTGCTG	8.33
CCGCATAGGACTTCTTCCCTGAAGCAATTGATAACCGTCTTGATTCGCTTGACGCTGCTG	8.27
GGAAAAAGGCCCAGGGTAACACCGGAAGTGCGCTTAGTCTTGATTCGCTTGACGCTGCTG	11.7
TAAAGGGAAGACGGTTGTGGTAGTTCGGGGTATTAAGTCTTGATTCGCTTGACGCTGCTG	8.21
GCTGCTGCGGTGCATACCCCACAGGATGTGACCCCGGTCTTGATTCGCTTGACGCTGCTG	8.47
GGAAAACGGCCCAGGGTAACACCGGAAGTGGGCTTAGTCTTGATTCGCTTGACGCTGCTG	12
TACTGACTTATATATGCGAATGCACATGAATATACCGTCTTGATTCGCTTGACGCTGCTG	8.19
GGAAAAAGGCCCAGGCTAACACCGGAAGTGGGCTTAGTCTTGATTCGCTTGACGCTGCTG	12.1
GATCAATTTCTGCCCTTATTCGCACGTGCCATAACAGTCTTGATTCGCTTGACGCTGCTG	8.18
CGGAAGTGTCGTAAACGTCGGATATCCGGTTCTTTTGTCTTGATTCGCTTGACGCTGCTG	11.9
